Assay: soluble on expression in E. coli; label from the status in PepcDB or PDB records

## HHHHHHMNTINIAKNDFSDIELAAIPFNTLADHYGERLAREQLALEHESYEMGEARFRKMFERQLKAGEVADNAAAKPLITTLLPKMIARINDWFEEVKAKRGKRPTAFQFLQEIKPEAVAYITIKTTLACLTSADNTTVQAVASAIGRAIEDEARFGRIRDLEAKHFKKNVEEQLNKRVGHVYKKAFMQVVEADMLSKGLLGGEAWSSWHKEDSIHVGVRCIEMLIESTGMVSLHRQNAGVVGQDSETIELAPEYAEAIATRAGALAGISLMFQPCVVPPKPWTGITGGGYWANGRRPLALVRTHSKKALMRYEDVYMPEVYKAINIAQNTAWKINKKVLAVANVITKWKHCPVEDIPAIEREELPMKPEDIDMNPEALTAWKRAAAAVYRKDKARKSRRISLEFMLEQANKFANHKAIWFPYNMDWRGRVYAVSMFNPQGNDMTKGLLTLAKGKPIGKEGYYWLKIHGANCAGVDKVPFPERIKFIEENHENIMACAKSPLENTWWAEQDSPFCFLAFCFEYAGVQHHGLSYNCSLPLAFDGSCSGIQHFSAMLRDEVGGRAVNLLPSETVQDIYGIVAKKVNEILQADAINGTDNEVVTVTDENTGEISEKVKLGTKALAGQWLAYGVTRSVTKRSVMTLAYGSKEFGFRQQVLEDTIQPAIDSGKGLMFTQPNQAAGYMAKLIWESVSVTVVAAVEAMNWLKSAAKLLAAEVKDKKTGEILRKRCAVHWVTPDGFPVWQEYKKPIQTRLNLMFLGQFRLQPTINTNKDSEIDAHKQESGIAPNFVHSQDGSHLRKTVVWAHEKYGIESFALIHDSFGTIPADAANLFKAVRETMVDTYESCDVLADFYDQFADQLHESQLDKMPALPAKGNLNLRDILESDFAFA
  soluble on expression in E. coli: soluble

Source: the DeepSol protein solubility set
